Reference: PubChem BioAssay AID1745853 (National Center for Advancing Translational Sciences (NCATS), 2022)
Some of the results follow. These are further read-outs of the screen, such as a control signal, another cell line or another target. No call is given for them.

How the values were obtained:
Assay in all cases: Primary Screen for Target Class Profiling of Small Molecule Inhibitors of Methyltransferases
[1] = target: Glycine N-methyltransferase (Homo sapiens) (UniProt Q14749); details: purified enzyme, MTase-Glo SAH luminescence; measured here: GNMT inhibition; at 40 µM; stronger effect = lower value
Outline: (§1)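 Each enzyme was assayed with SAM and its substrate. SAH formation detected by MTase-Glo luminescence; single-point 40 uM screen[…].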

[2] = target: Guanidinoacetate N-methyltransferase (Homo sapiens) (UniProt Q14353); details: purified enzyme, MTase-Glo SAH luminescence; measured here: GAMT inhibition; at 40 µM; stronger effect = lower value
Outline: as §1

[3] = target: Histamine N-methyltransferase (Homo sapiens) (UniProt P50135); details: purified enzyme, MTase-Glo SAH luminescence; measured here: HNMT inhibition; at 40 µM; stronger effect = lower value
Outline: as §1

[4] = target: Nicotinamide N-methyltransferase (Homo sapiens) (UniProt P40261); details: purified enzyme, MTase-Glo SAH luminescence; measured here: NNMT inhibition; at 40 µM; stronger effect = lower value
Outline: as §1

[5] = target: Phenylethanolamine N-methyltransferase (Homo sapiens) (UniProt P11086); details: purified enzyme, MTase-Glo SAH luminescence; measured here: PNMT inhibition; at 40 µM; stronger effect = lower value
Outline: as §1
On the % scale 0 is the no-effect control and ±100 the full control effect.

SMILES | activity change, negative = inhibition [1] | activity change, negative = inhibition [2] | activity change, negative = inhibition [3] | activity change, negative = inhibition [4] | activity change, negative = inhibition [5]
Cn1cc(CN2CCCC(C(=O)N3CCOCC3)C2)c(-c2ccc(C3CCCCC3)cc2)n1 (stereo not given) | 0.845% | -0.452% | 1.09% | -1.24% | -0.063%
COc1ccc(S(=O)(=O)N2CCOC[C@H](Oc3ccccc3)C2)cc1 | -8.05% | -4.82% | -2.19% | -9.76% | -7.24%
CC1(C(=O)NC2CCCCCC2)Cn2c(nc3ccccc32)C(=O)N1Cc1ccccn1 (stereo not given) | 5.41% | 1.28% | 11.3% | 5.02% | 6.51%
O=C1N(CC2CC2)CCCC1(O)CNCc1cc(F)cc(F)c1 (stereo not given) | -4.75% | -4.4% | -0.895% | -11.3% | 9.35%
CSCCC(NS(=O)(=O)c1ccc2c(c1)oc(=O)n2C)C(=O)N1CCN(c2cc(C)ccc2C)CC1 (stereo not given) | 8.95% | 2.15% | 9.17% | -4.27% | 1.96%
OCCOCCn1cnc(-c2ccccc2)c1COCc1ccccc1 | -5.5% | -0.442% | -0.459% | -3.7% | -3.6%
CCCn1c(=O)c2cc(F)ccc2n2c(SCC(=O)N3CCN(c4ccc(F)cc4)CC3)nnc12 | -4.44% | 0% | 5.2% | -1.18% | 0.092%
O=C(CSc1nnc2n(CCc3ccccc3)c(=O)c3ccccc3n12)Nc1cccc(F)c1 | 3.45% | 0% | 9.04% | 1.52% | 1.68%
O=C(/C=C/c1ccccc1)OC[C@H]1O[C@@H](OC(=O)c2cc(O)c(O)c(O)c2)[C@H](O)[C@@H](O)[C@@H]1O | -1.48% | 6.72% | 9.41% | -7.46% | 3.52%
